Experimental data published in article PMC4336329 (PLoS ONE, 2015).
About 2,200 (0.71%) of roughly 310,000 compounds showed an effect of 50% or more. Effects have a minus sign here. The list shows a part of the results.

molecular target: human ether-à-go-go-related gene (hERG) potassium channel (human, UniProt Q12809); assay: primary screen, population patch clamp on CHO cells stably expressing hERG
Sequence (Q12809 whole entry, looked up): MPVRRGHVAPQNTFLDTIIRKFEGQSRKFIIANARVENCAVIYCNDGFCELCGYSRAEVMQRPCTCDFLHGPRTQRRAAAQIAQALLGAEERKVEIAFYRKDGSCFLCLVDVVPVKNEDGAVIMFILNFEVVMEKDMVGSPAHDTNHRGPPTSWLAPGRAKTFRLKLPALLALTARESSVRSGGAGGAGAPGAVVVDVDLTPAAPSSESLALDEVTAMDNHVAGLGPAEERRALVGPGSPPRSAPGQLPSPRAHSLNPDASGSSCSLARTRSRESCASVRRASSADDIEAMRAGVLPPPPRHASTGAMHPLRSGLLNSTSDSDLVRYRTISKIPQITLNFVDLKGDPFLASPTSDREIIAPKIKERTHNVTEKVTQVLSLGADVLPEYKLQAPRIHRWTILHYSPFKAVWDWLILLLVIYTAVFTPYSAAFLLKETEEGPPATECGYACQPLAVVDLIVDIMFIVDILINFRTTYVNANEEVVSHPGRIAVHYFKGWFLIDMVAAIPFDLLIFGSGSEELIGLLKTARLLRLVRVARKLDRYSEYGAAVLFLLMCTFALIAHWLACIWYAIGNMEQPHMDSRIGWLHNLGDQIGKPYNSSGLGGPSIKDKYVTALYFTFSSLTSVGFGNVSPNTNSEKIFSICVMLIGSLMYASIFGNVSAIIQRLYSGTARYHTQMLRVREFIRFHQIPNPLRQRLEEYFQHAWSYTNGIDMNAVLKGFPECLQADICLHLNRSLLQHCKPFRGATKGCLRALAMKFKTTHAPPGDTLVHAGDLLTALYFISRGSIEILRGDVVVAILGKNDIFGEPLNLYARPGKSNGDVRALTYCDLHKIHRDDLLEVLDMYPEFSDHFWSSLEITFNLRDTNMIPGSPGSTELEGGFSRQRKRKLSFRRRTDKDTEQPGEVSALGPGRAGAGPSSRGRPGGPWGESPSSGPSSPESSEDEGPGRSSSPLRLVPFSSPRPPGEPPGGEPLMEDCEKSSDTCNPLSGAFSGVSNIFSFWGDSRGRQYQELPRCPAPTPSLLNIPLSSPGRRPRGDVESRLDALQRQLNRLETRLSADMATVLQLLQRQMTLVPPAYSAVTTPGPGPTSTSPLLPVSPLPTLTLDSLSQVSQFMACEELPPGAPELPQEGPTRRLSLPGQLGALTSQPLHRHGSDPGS

Row | SMILES | hERG current change (%, negative = inhibition) at 1uM
1 | NC(=O)[C@H]1CC2(CC(c3cccc(NC(=O)[C@H]4CCC(=O)N4)c3)=NO2)CN1C(=O)c1ccccc1 (stereo partly drawn) | 12.1%
2 | CCc1nnc(NC(=O)C2CSC3(C)CCC(=O)N23)s1 (stereo not drawn) | 7.28%
3 | COc1ccc(NC(=O)CN(C)C(=O)CSc2nc3ccccc3s2)cc1 | 6.17%
4 | O=C(NCc1ccccc1Cl)C1CCC(CNc2c(N3CCOCC3)c(=O)c2=O)CC1 (stereo not drawn) | 28.3%
5 | CCOC(=O)Cc1cc(-c2ccccc2)nc2ccc3ccccc3c12 | 22.6%
6 | O=C(O)/C=C/C(=O)NNc1ccc([N+](=O)[O-])cc1 | 9.55%
7 | CSc1ncc(Cl)c(C(=O)Nc2nnc(SC)s2)n1 | 9.79%
8 | O=C(N/N=C/c1ccccn1)c1ccc(S(=O)(=O)N2CCCCCC2)cc1 | 8.69%
9 | Cc1ccsc1/C=N\Nc1cn[nH]c(=O)c1Cl | 15.5%
10 | Cc1cccc2c1CC(C)(C)N/C2=C\C(N)=O | 3.56%
11 | CSCCOC(=O)COc1ccc(/C=N/NC(=O)c2c(Cl)cnn2C)cc1 | 6.26%
12 | C=C[C@H](CC(C)C)N(Cc1ccccc1)S(=O)(=O)N(Cc1ccc(OC)cc1)[C@H](C=C)CC(C)C | 8.02%
13 | COc1ccc(Nc2ccncc2[N+](=O)[O-])cc1 | 3.97%
14 | CCCCCN(C(=O)CCC(=O)OCc1cccc(C)c1)c1c(N)n(CCCC)c(=O)[nH]c1=O | 7.24%
15 | CCN(CC)c1ccc(S(=O)(=O)N2CCOCC2)cc1NC(=O)CSc1cccc[n+]1[O-] | 6.8%
16 | CCOC(=O)N1CCC(NC(=O)CC2C(=O)NCCN2Cc2ccccc2)CC1 (stereo not drawn) | 3.07%
17 | COc1ccc(CNC(=O)CCCn2ncn3c(cc4occc43)c2=O)cc1 | 4.81%
18 | CCCCNc1c(-c2ccc(SC(C)CC)c(OC)c2)nc2ccc(C)cn12.O=C(O)C(F)(F)F (stereo not drawn) | 7.82%
19 | CCN(CC)CCC(=O)N1c2ccccc2CCc2ccc(NC(=O)OC)cc21.Cl | 4.03%
20 | O=C(O)CCC(=O)Nc1ccc(-c2nc3ccc(C(=O)c4ccccc4)cc3[nH]2)cc1 | 15%
21 | CCN1C(=O)C(O)(CC(=O)c2cccc(-n3cccc3)c2)c2ccccc21 (stereo not drawn) | 6.22%
22 | CSCC(C)N1CCC(CO)(CCCc2ccccc2)CC1 (stereo not drawn) | -11.2%
23 | COc1cc(-c2n[nH]c(=S)n2-c2ccccc2C(F)(F)F)cc(OC)c1OC | 9.36%
24 | CCCN1C(=O)SC(CC(=O)Nc2cccc3ccccc23)C1=O (stereo not drawn) | 13.7%
25 | CC(C(=O)N1CCc2ccccc21)N(C)CC(=O)Nc1ccccc1Cl (stereo not drawn) | -5.44%
26 | CN=C1CN(O)C(c2ccccc2)=c2cc(Cl)ccc2=N1 | 17.4%
27 | CC(C)CN1C(=O)c2ccc(NC(=O)C3CC3)cc2C1=O | -6.71%

Row | SMILES | hERG current change (%, negative = inhibition) at 1uM
28 | CCCCNS(=O)(=O)c1ccc2nc(SCC(=O)Nc3cc(C)cc(C)c3)[nH]c2c1 | 13.2%
29 | Cc1ccc(-n2nc(C)c(C(=O)O)n2)c(C)c1 | -4.18%
30 | CCC(C)(C)n1nnnc1CN1CCC(NC(=O)c2ccc(Br)cc2)CC1 | -4.98%
31 | CCOc1cc(/C=N/NC(=O)c2ccc(=O)n(C)c2)ccc1O | 8.84%
32 | CC(=O)c1cccc(N(CC(=O)NC2CCCC2)C(=O)c2csnn2)c1 | 14.5%
33 | Cc1c(C(=O)NC(C)C)sc2ncn(CC(=O)N3CCC(C)CC3)c(=O)c12 | 4.94%
34 | CN(c1ccccc1)S(=O)(=O)c1cccc(NC(=O)c2ccc(=O)[nH]c2)c1 | 1.56%
35 | COc1ccc(CNC(=O)c2ccccc2SCC(=O)NCc2ccco2)cc1 | -0.751%
36 | O=C(CCOc1ccccc1)Nc1cccc([N+](=O)[O-])c1 | 1.19%
37 | COc1ccc2c(C)cc(SCC(=O)c3ccc4c(c3)OCO4)nc2c1 | -2.85%
38 | O=C(CN1C(=O)NC2(CCCC2)C1=O)N1CCc2ccccc2C1 | 14.4%
39 | COc1ccc(O)c(CN2CCCC(N3CCN(c4ccc(F)cc4)CC3)C2)c1 (stereo not drawn) | -12.5%
40 | Cc1ccc(-c2ccc(SCC(=O)NCC3CCCO3)nn2)cc1 (stereo not drawn) | 6.79%
41 | CCOC(=O)c1c(-c2ccccc2)oc2ccc(OCC(O)CN(C)C)cc12 (stereo not drawn) | 11.2%
42 | O=C(Nc1ccccc1)OCc1cncs1 | 15.4%
43 | CCN1CCN(Cc2c(O)ccc3c2O/C(=C\c2ccccc2)C3=O)CC1 | 8.87%
44 | O=C(CN1C(=O)NC2(CCCCC2)C1=O)N1CCN(c2ncccn2)CC1 | 8.16%
45 | COC(=O)c1ccc(NC(=O)c2ccc3nsnc3c2)cc1 | 11.7%
46 | O=C(NC(=S)Nc1ccc(S(=O)(=O)Nc2nccs2)cc1)c1ccc(F)c(F)c1 | 11.5%
47 | c1ccc(Cn2cc(-c3cccnc3)cn2)cc1 | 10.4%
48 | Cn1c(-c2ccc(F)cc2)cnc1NCc1cccc([N+](=O)[O-])c1 | -8.52%
49 | CCN1CCN(c2ccc(S(=O)(=O)N3CCCCC3)cc2NC(=O)c2cccc(C(F)(F)F)c2)CC1 | -0.449%
50 | COc1cc(NS(=O)(=O)c2ccc(NC(=S)NC(=O)c3sc4cc(F)ccc4c3Cl)cc2)nc(OC)n1 | 11.1%
51 | CC(=O)C(C)n1c(CN2CCN(C(=O)c3ccco3)CC2)nc2c1c(=O)n(C)c(=O)n2C (stereo not drawn) | 16.2%
52 | N#Cc1cncc(-c2ccc3c(c2)OCCOCCOCCOCCOCCO3)n1 | -95.2%
53 | O=C(O)C(=O)O.O=[N+]([O-])c1ccccc1CNCCc1c[nH]c2ccccc12 | 1.33%
54 | Clc1ccc(OCCCN2CCCCC2)c(Br)c1.O=C(O)C(=O)O | -38.6%
